Results published in PubChem BioAssay AID2675 (National Center for Advancing Translational Sciences (NCATS), 2010).
Screen size: about 280,000 compounds; about 100 (0.036%) were called active. This list was built around the results that the source calls inconclusive (neither active nor inactive); the mix of calls is not that of the screen. Calls come from the whole dose curve; as a rule, active = well fitted inhibition curve with a large enough effect in the signal ratio, with a control signal flat (not every such curve was filed as active); inconclusive = small, poorly fitted or top-dose-only effect, or effect the other way, or a change in a side signal; inactive = no such curve, though single readings can be large or run the other way; the % refers to the signal ratio. Potencies of inconclusive entries are doubtful fits and often do not repeat. A note “side channel” means that the fit belongs to a control or component signal, not to the main read-out.

These compounds were tested against Muscleblind-like protein 1 (Homo sapiens) (UniProt Q9NR56) (assay: qHTS Assay for Inhibitors of MBNL1-poly(CUG) RNA binding). Conditions: TR-FRET MBNL1-His/biotin-(CUG)12 binding, 665/545 ratio; series mostly up to 57.5 µM.
Chain of UniProt Q9NR56 (Q9NR56 whole entry, looked up): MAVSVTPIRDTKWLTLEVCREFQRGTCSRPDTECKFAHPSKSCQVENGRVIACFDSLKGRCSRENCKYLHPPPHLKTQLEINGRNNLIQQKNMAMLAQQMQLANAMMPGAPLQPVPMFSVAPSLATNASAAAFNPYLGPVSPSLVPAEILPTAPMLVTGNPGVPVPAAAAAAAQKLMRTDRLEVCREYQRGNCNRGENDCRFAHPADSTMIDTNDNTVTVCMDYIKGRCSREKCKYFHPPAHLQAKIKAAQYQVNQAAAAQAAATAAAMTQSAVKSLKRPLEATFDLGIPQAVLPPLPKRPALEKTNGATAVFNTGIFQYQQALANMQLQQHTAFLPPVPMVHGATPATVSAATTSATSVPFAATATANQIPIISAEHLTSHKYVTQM
Outline: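 MBNL1-His + Biotin-(CUG)12, cpd titration 92 nM–58 uM; Tb anti-His Ab 0.055 ng/ul, SA-XL665 5 nM (final); 60 min RT; ratiometric 665/545 nm, Ex 340 nm; normalized to buffer and full-complex controls.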
Potency is the fitted concentration of half-maximal effect; tags give direction and shape of the fitted curve or compound fluorescence and quenching.

SMILES | Potency
C=CCOC(=O)C1C(=O)CC(C)(O)C(C(=O)OCC=C)C1c1ccc(OCC)cc1 (stereo not given) | inconclusive: 22.4 µM [fluorescent, side channel, partial curve, poor fit]
O=C(NCCN1CCOCC1)c1ccc(F)cc1 | inactive
CCc1ccccc1NC(=O)CN(C)S(=O)(=O)c1ccc(-c2ccc(=O)[nH]n2)s1 | inconclusive: 14.1 µM [quencher, side channel, partial curve]
Cc1ccc(-n2c(=O)c3sccc3n(Cc3cc(=O)n4cc(Cl)ccc4n3)c2=O)cc1F | inconclusive: 14.1 µM [quencher, side channel, partial curve]
CCc1nnc(NC(=O)C2Cc3ccccc3CN2S(=O)(=O)c2c(C)c(C)cc(C)c2C)s1 (stereo not given) | inactive
Cc1cccc(C(=O)NNC(=O)c2cccc([N+](=O)[O-])c2)c1 | inconclusive: 17.8 µM [quencher, side channel, partial curve]
CCn1c(=O)cc(C(=O)OC)sc1=Nc1ccc(F)c(F)c1 | inconclusive: 7.94 µM [inhibitor, single point]
O=Cc1c(Sc2ccccc2)nc2ccccn2c1=O | inconclusive: 14.1 µM [quencher, side channel, partial curve]
Cc1ccc(S(N)(=O)=O)c(C)c1N1CCCC1=O | inconclusive: 79.4 µM [inhibitor, single point]
CC1CCCN(C(=S)Nc2ccc(S(=O)(=O)N3CCCCC3)cc2)C1 (stereo not given) | inactive
COc1ccc(F)cc1CN1CCN(c2ncnc3scc(-c4ccccc4)c23)CC1 | inconclusive: 28.2 µM [fluorescent, side channel, single point]
O=C(NCc1ccccc1Cl)c1ccc(CS(=O)(=O)c2ccccc2)o1 | inactive
COc1ccc(CCNC(=O)CCN2C(=O)COc3ccc(C)cc32)cc1OC | inactive
O=C(O)CN1C(=O)c2ccc(Oc3cccc4c3C(=O)N(CC(=O)O)C4=O)cc2C1=O | inconclusive: 14.1 µM [quencher, partial curve]
O=C(Nc1cccc([N+](=O)[O-])c1)c1ccncc1 | inconclusive: 14.1 µM [activator, single point]
Cc1ccc(NC(=O)Cn2c(=O)n(CCCCC(=O)NCc3ccco3)c(=O)c3ccccc32)cc1 | inactive
NC(=O)c1ccc(N2CCNC(=O)C2)c([N+](=O)[O-])c1 | inconclusive: 14.1 µM [quencher, partial curve]
O=[N+]([O-])c1cc2c(cc1CN1CCN(c3ccccc3F)CC1)OCO2 | inconclusive: 25.1 µM [quencher, side channel, single point]
Cc1ccc(NC(=O)NNC(=O)C2CC(c3cccnc3)=NO2)cc1 (stereo not given) | inactive
O=Cc1cccn1-c1cccc([N+](=O)[O-])c1 | inconclusive: 6.31 µM [quencher, side channel, partial curve]

SMILES | Potency
COc1ccc(NC(=O)CSc2nnc(Cn3cnc([N+](=O)[O-])n3)n2C)cc1 | inconclusive: 35.5 µM [quencher, side channel, partial curve, poor fit]
O=C(N/N=C/c1ccc(N2CCOCC2)c([N+](=O)[O-])c1)c1ccc(F)cc1 | inconclusive: 17.8 µM [quencher, side channel, partial curve]
Oc1ccc(/C=N/NC(=S)Nc2cccnc2)c(O)c1O | inactive
CCOC(=O)N1CCC(Nc2cc(C)nc3c(-c4ccccc4OC)c(C)nn23)CC1 | inconclusive: 8.91 µM [quencher, side channel, single point]
COc1cc(/C=N/Nc2ccc(Cl)nn2)cc(OC)c1O | inconclusive: 28.2 µM [quencher, side channel, single point]
Oc1ccc2ccccc2c1C=NCc1cn2ccsc2n1 | inconclusive: 28.2 µM [quencher, partial curve]
CC(C)c1cc(N=NC(N)=O)cc(C(C)C)c1O | inconclusive: 22.4 µM [quencher, side channel, partial curve]
COc1ccccc1NC(=O)c1ccc(C(=O)c2ccccc2)o1 | inconclusive: 11.2 µM [quencher, side channel, partial curve]
CCOc1ccc(N(CC)C(=O)CCS(=O)(=O)c2cccc3nonc23)cc1 | inconclusive: 14.1 µM [quencher, side channel, partial curve]
COc1cc(OC)c2c(=O)c(OC)c(-c3ccc(OC)c(OC)c3)oc2c1 | inconclusive: 25.1 µM [quencher, side channel, partial curve]
CCCCNC(=O)COC(=O)c1ccccc1F | inactive
Cc1ccsc1/C=N/NC(=O)c1nnn(-c2nonc2N)c1CN(C)c1ccccc1 | inconclusive: 22.4 µM [quencher, side channel, partial curve]
CC(C)(C)C(=O)N1CCN(c2ccc([N+](=O)[O-])c(NCc3cccnc3)c2)CC1 | inconclusive: 12.6 µM [quencher, partial curve]
COc1ccc(/C=C2\NC(=S)N(CC3CCCO3)C2=O)c(OC)c1 (stereo not given) | inconclusive: 10 µM [quencher, side channel, partial curve]
C=CCNC(=O)c1ccccc1NC(=O)C1CC(=O)N(C(C)C)C1 (stereo not given) | inactive
CCOc1ccc(C2C3=C(CCCC3=O)Nc3ccc4ncccc4c32)cc1 (stereo not given) | inconclusive: 10 µM [quencher, side channel, partial curve]
COc1ccc(C2=NCCc3cc(OC)c(OC)cc32)cc1 | inconclusive: 15.8 µM [quencher, side channel, single point]
O=C(Cc1cccc2ccccc12)Nc1nc(-c2cccc([N+](=O)[O-])c2)cs1 | inconclusive: 10 µM [fluorescent, side channel, partial curve]
Cc1cc(=O)n2ccccc2c1C#N | inconclusive: 14.1 µM [quencher, side channel, partial curve]
CN1CCN(c2ccc(C(CC(N)=O)NC(=O)Cc3cccc4ccccc34)cc2[N+](=O)[O-])CC1 (stereo not given) | inconclusive: 25.1 µM [quencher, side channel, single point]
